Source: PubChem BioAssay AID488969 (Vanderbilt High Throughput Screening Facility, 2010)
Whole data set: some 110,000 compounds, median “z-score” near -0.1, cut for the highest 2% near 2. Some of the results follow. Activity calls are given as the source filed them.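 How the source made its calls: active means z-score in the third read window above 3 or below -3; inactive means the rest.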

biological target: Metabotropic glutamate receptor 8 (Rattus norvegicus) (UniProt P70579); experiment: mGluR8 Gi/Go-coupled signaling modulation – cell-based, rat, thallium flux, HTS, primary screen (AID 488969); settings: HEK293 rat mGluR8, GIRK (G protein-gated inwardly rectifying potassium channel) thallium flux, FluoZin2; at 10 µM; stronger effect = higher value; submaximal glutamate (EC20) added with thallium
Chain of UniProt P70579 (P70579 whole entry, looked up): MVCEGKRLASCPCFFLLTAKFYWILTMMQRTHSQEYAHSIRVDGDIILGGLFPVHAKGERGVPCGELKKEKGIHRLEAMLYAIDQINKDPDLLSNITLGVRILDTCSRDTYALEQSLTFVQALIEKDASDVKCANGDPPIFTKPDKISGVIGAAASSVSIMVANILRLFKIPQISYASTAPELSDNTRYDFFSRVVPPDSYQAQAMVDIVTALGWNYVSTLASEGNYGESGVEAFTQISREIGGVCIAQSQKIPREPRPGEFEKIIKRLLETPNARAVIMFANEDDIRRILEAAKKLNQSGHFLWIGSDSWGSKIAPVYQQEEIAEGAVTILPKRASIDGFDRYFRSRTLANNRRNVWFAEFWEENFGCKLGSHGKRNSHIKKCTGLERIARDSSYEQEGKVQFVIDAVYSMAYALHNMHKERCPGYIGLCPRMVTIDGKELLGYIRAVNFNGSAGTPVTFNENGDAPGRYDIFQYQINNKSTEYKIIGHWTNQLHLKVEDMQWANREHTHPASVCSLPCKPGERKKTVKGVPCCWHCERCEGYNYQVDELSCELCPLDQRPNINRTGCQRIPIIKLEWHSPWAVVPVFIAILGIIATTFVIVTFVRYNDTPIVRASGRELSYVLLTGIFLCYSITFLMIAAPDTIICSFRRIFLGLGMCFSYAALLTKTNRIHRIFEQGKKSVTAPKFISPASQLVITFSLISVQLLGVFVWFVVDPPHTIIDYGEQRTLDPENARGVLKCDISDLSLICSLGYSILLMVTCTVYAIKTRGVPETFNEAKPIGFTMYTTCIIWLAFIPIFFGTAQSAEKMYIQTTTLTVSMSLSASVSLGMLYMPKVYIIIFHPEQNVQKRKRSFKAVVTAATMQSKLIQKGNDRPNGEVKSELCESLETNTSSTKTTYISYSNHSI

SMILES | z-score
COc1cccc(OCCCOc2ccccc2C(C)C)c1 | -0.176
COC1(c2ccccc2)NC(=S)NN=C1c1ccccc1 (centres undefined) | 0.721
CCOc1ccc(OCC)c(NC(=O)CN(C)S(=O)(=O)c2cnc[nH]2)c1 | 1.24
CCN(C(=O)CSc1nnc(Cn2nnc3ccccc32)o1)c1nc(C)cs1 | 0.00945
CCC(=O)N(CC(=O)Nc1sc(C)c(C)c1C(N)=O)C1CCCCC1 | -0.174
CCc1ccc2c(c1)C(=O)c1ccccc1C2=O | -0.389
CCOC(=O)C1CCCN(C(=O)c2cc(-c3ccccc3)on2)C1 (centres undefined) | active: 3.22
CCNC(=S)NNC(=O)c1cccnc1 | 0.0145
COc1ccc(OC)c2sc(NC(=O)CCSc3ccccc3)nc12 | 0.564
CCC(=O)OC1(C#CCOc2ccc(OC)cc2)CCN(C)CC1 | -0.0173
COc1ccc(/C=N\NC(=O)c2cc(OCC(F)(F)F)ccc2OCC(F)(F)F)cc1 | 0.613
O=C(NNC(=O)C1CC1c1ccccc1)c1cccc([N+](=O)[O-])c1 (centres undefined) | -0.0643
CCOCCCNC(=O)C1CC(=O)N(C2CCCC2)C1 (centres undefined) | 0.576
c1ccc2c(c1)ccc1nnc(-c3ccc4c(c3)OCO4)n12 | -0.637
CCOC(=O)C(NCc1ccccc1OC)(NC(C)=O)C(F)(F)F (centres undefined) | 0.381
O=C(Nc1cccc(Cl)c1)c1cc(S(=O)(=O)NCCc2ccc(Cl)cc2)ccc1F | 0.0486
CCNc1nc(=S)nc(NC(C)C)[nH]1 | -0.203
Cn1c(=O)c(=O)n(C)c2cc(S(=O)(=O)N3CCC(Cc4ccccc4)CC3)ccc21 | -0.15
CC(/C=N/NC(=S)Nc1cccc(S(=O)(=O)N(C)C)c1)c1ccccc1 (centres undefined) | 1.87
COc1ccc(C2C(C(=O)NCc3ccccc3)=C(C)Nc3ncnn32)cc1OC (centres undefined) | -0.609
COC(=O)c1cn(N(C)c2ncc(C(F)(F)F)cc2Cl)c(=O)c2ccccc12 | 0.228
COc1ccc(NC(=O)c2ccccc2NC(=O)C2CCCO2)cc1 (centres undefined) | 0.019
CCOC(=O)c1cc(-c2ccccc2)sc1NC(=O)CSc1nnnn1C | -1.51

SMILES | z-score
NC(=S)NNC(=O)Nc1cccc(Cl)c1 | 0.406
CCN(CC)CCOC(=O)c1ccc(NC(=O)COc2cc(=O)n(CC)c3ccccc23)cc1 | -0.657
CCOC(=O)c1ccc(-n2cncn2)nc1 | -0.0806
O=C(CCC(=O)Nc1ccccc1Cl)N/N=C/c1ccccc1 | -0.0425
O=C(Cc1cccc2ccccc12)N/N=C/c1ccc(F)cc1 | -0.192
CSc1ccc(S(=O)(=O)NC2CCCCC2)cc1 | -0.248
CCOC(=O)C1=C(N)OC(CCl)=C(C#N)C1c1ccsc1 (centres undefined) | -0.228
COc1ccccc1-c1cc(C(=O)NCc2ccc(F)cc2)no1 | -0.214
O=C(Nc1ccccc1)c1ccc(NC2CCCCC2)c(S(=O)(=O)N2CCOCC2)c1 | -0.0587
Cc1ccccc1/C=C1\OC(=O)c2ccccc21 | -0.0296
C/C(=N\OC(=O)c1ccc(Cl)cc1)c1sc(-c2ccccc2)nc1C | -1.01
NC(=O)C(c1ccc(Cl)cc1)c1ccc(Sc2ccc(Cl)cc2)nn1 (centres undefined) | 0.175
Fc1ccc(C(c2nnnn2CCc2ccccc2)N2CCCc3ccccc32)cc1 (centres undefined) | -0.0894
O=C(NNC(=O)c1ccc(F)cc1)C(=O)N1CCCCC1 | -0.0259
Cc1cccc(OCC(=O)Nc2ccccc2N2CCCCC2)c1 | 0.378
CCCCN1C(=O)c2ccc(C(=O)Nc3cccc(C)c3C)cc2C1=O | 0.268
CCc1cccc(C)c1NC(=O)CSc1nc(-c2ccccc2F)nc2nc[nH]c12 | 0.0867
CCN(N=Nc1cccc([N+](=O)[O-])c1)c1cccc([N+](=O)[O-])c1 | -0.0769
CCn1c(=O)n(CC(=O)NC2CCCC(C)C2C)c(=O)c2ccccc21 (centres undefined) | 0.522
O=c1c2ccccc2ncn1CCOCCOc1cccc(Br)c1 | -0.276
CCOc1cccc(-c2nnc(SCC(=O)Nc3cc(C)ccc3OC)n2N)c1 | -0.599
Cc1nc(NCCO)c2nnn(Cc3ccccc3F)c2n1 | -0.129
Cc1cc(C(F)(F)F)nc(SCC(=O)NC2=NC(=O)C(C)S2)n1 (centres undefined) | 0.475

SMILES | z-score
N#Cc1nc(-c2cccs2)oc1NCCCN1CCOCC1 | 0.112
CCOC(=O)C1CCCN(S(=O)(=O)c2c(C)c(C)cc(C)c2C)C1 (centres undefined) | -0.122
COCCNS(=O)(=O)c1ccc(C2CNC(=O)C2)cc1 (centres undefined) | -0.229
COc1cc(-c2cc(C(=O)N3CCN(c4ccccn4)CC3)c3ccccc3n2)cc(OC)c1OC | active: -4.2
Nc1ccc(N2CCOCC2)c(Cl)c1 | -0.276
COc1ccc(NC(=O)Nc2ccc3nc(C)c(C)nc3c2)cc1 | 0.469
O=C(COC(=O)Cn1cnc2ccccc21)Nc1cccc2c1C(=O)c1ccccc1C2=O | -0.662
CN(C)c1oc(-c2ccc(OCc3ccccc3)cc2)nc1C#N | -1
Cc1ccccc1NC(=O)/C=C/c1cccc(C(F)(F)F)c1 | -0.116
O=C(Oc1ccccc1)n1c(=S)oc2ccccc21 | -0.751
Cc1nn(Cc2cccc(C(=O)NC34CC5CC(CC(C5)C3)C4)c2)c(C)c1Br | 0.396
CCOC(=O)c1cc2c(=O)n3ccccc3nc2n(CCOC)c1=NC(=O)c1ccncc1 | -0.0374
Cc1ccc(-n2cnc3c(sc4nccc(N(C)C)c43)c2=O)cc1 | -0.138
Cc1ccc(CCN2CC(C(=O)NCCN3CCOCC3)CC2=O)cc1 (centres undefined) | -0.00749
CSCCC(NC(=O)c1ccccc1)C(=O)Nc1ccc(NC(C)=O)cc1 (centres undefined) | -0.112
O=C(NC1CC1)c1nc2c(nnn2Cc2ccccc2Cl)c(=O)[nH]1 | -2.43
CCOC(=O)c1ccc(N2C(=O)CC(N(C)CCc3ccc(OC)c(OC)c3)C2=O)cc1 (centres undefined) | -0.142
COc1nc(-c2ccccc2)c2c(c1C#N)CC(C)(C)OC2 | -0.906
CO/N=C(\Cn1ncc(N2CCCC2)c(Br)c1=O)c1ccc(Cl)cc1 | active: -3.59
C=Cn1nc(C)c2ccccc2c1=O | 0.236
C=CCn1c(SC2CCOC2=O)nc2scc(C3CC3)c2c1=O (centres undefined) | -1.67
CCn1c(SCC(=O)N2c3ccccc3Sc3ccc(Cl)cc32)nc2c1c(=O)n(C)c(=O)n2C | -0.113
COC(=O)c1sccc1-c1ccc(/C=N/OCc2c(Cl)cccc2Cl)o1 | -0.187

SMILES | z-score
CCOC(=O)c1c(-c2ccc(F)cc2)csc1NC(=O)CCN1CCOCC1 | -1.1
Cc1ccc(S(=O)(=O)N2CCN(c3ccc([N+](=O)[O-])c4cccnc34)CC2)cc1 | -0.299
COc1ccc([N+](=O)[O-])cc1N(CC(=O)NCCC1=CCCCC1)S(C)(=O)=O | -0.391
CCCCOC(=O)Nc1cccc(C(=O)OCC)c1 | -0.438
C=CCSc1nc(N)c(C#N)c(-c2ccc(C)cc2)c1C#N | 0.664
CC1(C)CC(=O)C(C=Nc2cccnc2)=C(O)C1 | 0.759
CC1CCN(C(=O)c2ccc(N(C)S(C)(=O)=O)cc2)CC1 | -0.0497
O=C(c1cccs1)N1CCN(S(=O)(=O)c2ccccc2)CC1 | -0.416
CCOC(=O)c1ccc(S(=O)(=O)NC2CCCCCCC2)n1C | -0.208
CC(C)COC(=O)c1cc(=O)[nH]c2ccccc12 | 1.23
O=c1c(-c2ccc3c(c2)OCCO3)coc2cc(O)cc(O)c12 | 0.199
Cc1cc(/C=N\NC(=O)CC(=O)NC2CCCCC2)c(C)n1-c1ccc(Cl)c(Cl)c1 | 0.0786
COc1ccc(C(=O)OCC(=O)Nc2ccc(OC(F)F)cc2)c(OC)c1 | -0.522
O=C(Nc1ccc(NC(=O)c2cccs2)cc1)c1ccco1 | -0.141
Brc1ccccc1CN1CCC(N2CCCCC2)CC1 | -0.199
CC(=O)N/N=C/c1cc([N+](=O)[O-])ccc1OCCOc1ccccc1 | 0.0581
CCn1c(SCC(=O)N2c3ccccc3CCc3ccccc32)nc2c1c(=O)n(C)c(=O)n2C | -0.33
O=C(CSc1ccc2ccccc2n1)NCCC1=CCCCC1 | -0.282
COc1ccc(C(=O)NN2C(=O)C3CCC(C)(C2=O)C3(C)C)cc1 (centres undefined) | -0.0665
COc1ccc(CNCC(O)(c2ccc(Cl)cc2)c2ccc(Cl)cc2)cc1OC | -0.801
Cc1cc(C#N)c2ccccc2n1 | -0.0631
O=C(NNc1nc(-c2ccccc2)cs1)c1ccco1 | -0.43
CC(=O)Nc1ccc(NC(=O)CN2CCCC(C)C2)c(Cl)c1 (centres undefined) | -0.137

SMILES | z-score
O=C(CCSCc1ccc(Cl)cc1)NC1CCCC1 | -0.0852
COc1ccc(C2CC(c3ccccc3)=NN2C(=O)COC(=O)c2cccnc2Cl)cc1 (centres undefined) | 0.0845
Cc1cc(N2CCC(C)CC2)c(F)cc1[N+](=O)[O-] | 0.00178
CCCc1cc(=O)[nH]c(SCc2cccnc2)n1 | -0.521
Cn1nc(C(F)(F)F)c(C(=O)Nc2ccc(F)cc2F)c1Sc1cccc(Cl)c1 | -0.0899
c1csc(-c2nnc(N3CCCCCC3)c3ccccc23)c1 | -0.351
COc1ccc(C(=O)Nc2ccc(OCc3ccccc3)cc2)cc1[N+](=O)[O-] | 0.0206
CCOC(=O)/N=C(/NC(=O)Nc1ccc(C(=O)OCC)cc1)OC | 0.152
Cc1ccccc1C(=O)N[C@H](C(=O)Nc1ccc(Cl)c(Cl)c1)C(C)C | 0.82
CC1(C)S/C(=N/N=C/c2ccco2)NC1=O | -0.194
CCCC1=NCCn2cccc21 | 0.38
O=C(Cc1ccccc1)N/N=C/c1ccc([N+](=O)[O-])s1 | 0.543
Cn1cccc1/C=C1\SC(=S)N(CC(=O)O)C1=O | -0.209
O=[N+]([O-])c1ccc(S(=O)(=O)NCC2CCCO2)cc1 (centres undefined) | -0.0295
Cc1ccc(Cl)cc1Nc1nc(-c2sc(NC(=O)c3cccc(Cl)c3)nc2C)cs1 | 0.00487
COc1cccc2cc(NC(=O)C3CCCCC3)c(=O)oc12 | -0.121
CCN(CC)S(=O)(=O)c1ccc(OCC(=O)NCc2ccccc2)cc1 | 0.0793
Clc1ccc(Cc2ccc(Cl)nn2)c(Cl)c1 | -0.119
CC(C)Cn1c(-c2csc3c2CCCC3)n[nH]c1=S | -1.59
COc1cccc(NC(=O)CCSc2ccc(C)cc2)c1 | 0.275
CN(C1CCS(=O)(=O)C1)S(=O)(=O)c1ccc(N2CCCC2=O)cc1 (centres undefined) | 0.131
COC(=O)c1ccc(C(=O)OC)c(NC(=S)N2CCCCC2)c1 | 0.0622
